These results are taken from PubChem BioAssay AID360 (National Center for Advancing Translational Sciences (NCATS), 2006).

Screen size: about 48,000 compounds; about 550 (1.1%) were called active. About 4% were inconclusive and are not listed. Rule as the data show it: active = potency below about 15 µM; inconclusive = mostly about 16 µM to 33 µM; inactive = weaker than that. The list shows a part of the results.
Potency is read from the fitted curve at half-maximal effect.

UniProt P04062, sequence (P04062 whole entry, looked up): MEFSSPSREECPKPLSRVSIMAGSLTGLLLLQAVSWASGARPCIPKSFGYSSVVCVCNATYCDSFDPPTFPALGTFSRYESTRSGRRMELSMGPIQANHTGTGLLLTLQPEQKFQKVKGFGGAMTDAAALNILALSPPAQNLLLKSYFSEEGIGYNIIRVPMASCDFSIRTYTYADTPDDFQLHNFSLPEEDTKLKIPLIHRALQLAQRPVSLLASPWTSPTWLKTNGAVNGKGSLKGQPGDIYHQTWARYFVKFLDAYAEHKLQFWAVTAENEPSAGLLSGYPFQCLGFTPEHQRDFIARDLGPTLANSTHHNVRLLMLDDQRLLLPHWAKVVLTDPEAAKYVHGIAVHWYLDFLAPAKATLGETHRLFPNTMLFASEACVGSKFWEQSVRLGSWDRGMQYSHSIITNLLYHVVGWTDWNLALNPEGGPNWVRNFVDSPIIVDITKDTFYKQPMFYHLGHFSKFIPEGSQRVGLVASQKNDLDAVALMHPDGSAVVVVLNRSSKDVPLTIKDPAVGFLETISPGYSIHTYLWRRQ

For the experiment, the target named is Lysosomal acid glucosylceramidase (Homo sapiens) (UniProt P04062). The experiment in a line: Glucocerebrosidase.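 Also: the screen sought inhibitors.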 The settings on record: purified enzyme, resorufin glucoside fluorescence (screen aimed at inhibitors), 20 min. An outline of the steps:
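Wild-type enzyme at 0.2 nM final in 50mM citric acid/KH2PO4, 10mM sodium taurocholate, 0.01% tween-20, pH 5.9, with resorufin beta-D-glucopyranoside at 30 uM final. Compounds titrated, 20 min at RT, red fluorescence read; AC50 from titration.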
Consider `Cc1cc(C)cc(N(CC(=O)NCC2CCCO2)C(=O)CN2C(=O)COc3ccccc32)c1` (stereo unspecified), for which the Potency was inactive: > 76.9 µM.
With `C=CCn1sc(=N)c(C#N)c1N`, the Potency was inactive: > 76.9 µM.
With `Cn1nnc(NC(=O)C(c2ccccc2)c2ccccc2)n1`, the Potency is inactive: > 76.9 µM.
Turning to `O=C(NC1CCS(=O)(=O)C1)OC1CCCCC1` (stereo unspecified), the Potency is inactive: > 76.9 µM.
Take `Cc1nc(SCC(=O)NCc2ccco2)nc(C)c1C`: the Potency was inactive: > 76.9 µM.
Turning to `COc1ccc(-c2nc(C#N)c(NCc3ccccc3Cl)o2)cc1OC`, the Potency is inactive: > 76.9 µM.
`Cc1nn2c(-c3ccccc3)nnc2c2ccccc12`: the Potency is inactive: > 76.9 µM.
For `COc1ccccc1C(OC(=O)c1ccco1)C(=O)NC(C)(C)C` (stereo unspecified), the Potency is inactive: > 76.9 µM.
For `Cc1nn(CC(=O)NCCc2ccccc2)c(=O)c2ccccc12` the value was inactive: > 76.9 µM; for `COCC(C)n1c(SCC(=O)N2CCCCC2)nc2ccccc2c1=O` (stereo unspecified), inactive: > 76.9 µM.
For the compound `CCOCCCNc1ccc(-c2ccccc2)nn1`, the Potency was inactive: > 76.9 µM.
Next, `OCCNCc1ccc(OC2CCCC2)cc1`: inactive: > 76.9 µM; `COc1cc(C2C(C(C)=O)=C(C)Nc3ncnn32)ccc1O` (stereo unspecified): inactive: > 76.9 µM; `CCN(CC)CCCNC(=O)c1c(O)c2c([nH]c1=O)CCCC2`: inactive: > 76.9 µM.
For `CCn1c(COc2ccccc2C)nnc1SCC(=O)NC1CCCC1` the value was inactive: > 76.9 µM; for `Cc1ccc2nc3c(cc2c1)c(NC(=O)c1cccnc1)nn3C`, “inactive”.
For `CS(=O)(=O)N(CC(=O)N1CCN(Cc2ccccc2)CC1)C1CCCCC1` the value was inactive: > 76.9 µM; for `CCn1c(SCC(=O)C(C)(C)C)nnc1-c1ccccn1`, inactive: > 76.9 µM; for `CCSc1ccc2nnc(-c3cccc(F)c3)n2n1`, inactive: > 76.9 µM.
Turning to `COc1ccccc1CN1C(=O)CCC1(C)C(=O)NC1CCCCCC1` (stereo unspecified), the Potency was inactive: > 76.9 µM.
As to `Cc1cc(NC(=O)c2cccc(N3C(=O)CCC3=O)c2)no1`, the Potency is inactive: > 76.9 µM.
Consider `COc1ccccc1N1CCN(c2cc(=O)n(-c3ccc(Br)cc3)c(=O)[nH]2)CC1`, for which the Potency is inactive: > 76.9 µM.
As for `COc1nc(N(c2ccccc2)c2ccccc2)nc(-n2ccnc2)n1`, the Potency was inactive: > 76.9 µM.
`Cc1cc(NC(=O)Cn2nnc3sc4c(c3c2=O)CCCC4)no1`: the Potency was inactive: > 76.9 µM.
Take `COc1ccccc1Oc1c(C)oc2cc(OC(=O)c3ccco3)ccc2c1=O`: the Potency is inactive: > 76.9 µM.
Regarding `C=C(C)Cn1c(=O)c2c(nc3n2CCN3c2cccc(Cl)c2C)n(C)c1=O`, the Potency was inactive: > 76.9 µM.
As to `CCn1ccnc1C(O)c1ccc(N(C)C)cc1` (stereo unspecified), the Potency is inactive: > 76.9 µM.
For `CC(=O)c1cc(-c2nc3ccccc3n2C)n(C)c1`, the Potency is inactive: > 76.9 µM.
In the case of `CCCCn1cnc2c(cnn2-c2ccc(F)cc2)c1=O`, the Potency is inactive: > 76.9 µM.
`COC(=O)c1cc2ccsc2n1CC(=O)Nc1cc(C)cc(C)c1`: the Potency entry was “inactive”.
In the case of `CCOC(=O)Cc1csc(SCC(=O)Nc2sc3c(c2C(N)=O)CCC3)n1`, the Potency was inactive: > 76.9 µM.
Take `Cc1cn2c(nc1=O)OC1C(O)C(COC(=O)c3ccccc3)OC12` (stereo unspecified): the Potency is inactive: > 76.9 µM.
Consider `COCCN(C(=O)Cc1cccs1)c1nnc(-c2ccncc2)s1`, for which the Potency is inactive: > 76.9 µM.
For the compound `COc1ccc(OC)c(S(=O)(=O)N2CCC(C(=O)NCCc3ccc(OC)c(OC)c3)CC2)c1`, the Potency was inactive: > 76.9 µM.
In the case of `Cc1cc(C)n2nc(C(=O)N3CCOCC3)nc2n1`, the Potency is inactive: > 76.9 µM.
On to `CN(C)c1nc(N)nc(Cn2ccnc2)n1`, for which the Potency was inactive: > 76.9 µM.
As to `CC(C)OCCCNS(=O)(=O)c1ccc2c(c1)OCCO2`, the Potency is inactive: > 76.9 µM.
`O=C1c2sc3nc4c(c(=O)n3c2C(=O)N1c1ccccc1)CCC4`: the Potency is inactive: > 76.9 µM.
In the case of `COC(=O)CCC(=O)Nc1cccc(Cl)c1`, the Potency is inactive: > 76.9 µM.
As for `Cc1ccc(-c2nnc(SCC#N)n2N)cc1`, the Potency was inactive: > 76.9 µM.
For `O=C1NC(=O)c2c(NC(=O)C3CCCO3)cccc21` (stereo unspecified) the value was inactive: > 76.9 µM; for `CC(C)Oc1nc(-c2ccccc2O)nc2ccccc12`, inactive: > 76.9 µM; for `COc1ccc(N2C(=O)C(Cl)=C(Nc3c(C)n(C)n(-c4ccccc4)c3=O)C2=O)cc1`, inactive: > 76.9 µM.
Turning to `COC(=O)C(Nc1nccs1)(OC)C(F)(F)F` (stereo unspecified), the Potency is inactive: > 76.9 µM.
As to `CC(=O)N1CCc2cc(S(=O)(=O)NC(CC(C)C)C(=O)Nc3ccc4c(c3)OCCO4)ccc21` (stereo unspecified), the Potency was inactive: > 76.9 µM.
Consider `CCOc1ccc(-c2nc(-c3ccc(OC)cc3)no2)cc1OCC`, for which the Potency was inactive: > 76.9 µM.
As to `O=C(COc1ncnc2ccccc12)N1CCN(S(=O)(=O)c2ccc(Cl)cc2)CC1`, the Potency was inactive: > 76.9 µM.
Regarding `CCOc1ccc(/C(O)=C2\C(=O)C(=O)N(CCN(C)C)C2c2cccc(OC)c2OC)cc1Cl` (stereo unspecified), the Potency is inactive: > 76.9 µM.
For `Cc1ccccc1CSc1nc2c(c(=O)[nH]1)CCC2`, the Potency was inactive: > 76.9 µM.
Turning to `O=C(OCn1nnc2ccccc2c1=O)c1ccc(S(=O)(=O)N2CCOCC2)cc1`, the Potency is inactive: > 76.9 µM.
Take `Cc1[nH]nc2c1C(c1ccccn1)N(c1ccc(Br)cc1)C2=O` (stereo unspecified): the Potency was inactive: > 76.9 µM.
Take `c1ccc(-c2n[nH]c3ccccc23)cc1`: the Potency was inactive: > 76.9 µM.
Next, `CCc1ccc(CN(C)CCc2ccccn2)cc1`: inactive: > 76.9 µM.
On to `COCCn1nnnc1SCC(=O)N1CCCCC1`, for which the Potency was inactive: > 76.9 µM.
For the compound `Cc1ccccc1CN1CCN(S(=O)(=O)c2ccc(F)cc2)CC1`, the Potency was inactive: > 76.9 µM.
As for `c1cnc(NC2C3CC4CC(C3)CC2C4)nc1` (stereo unspecified), the Potency was inactive: > 76.9 µM.
For `COc1cccc(CNC(=O)C2CCCN(c3nn4c(=O)cc(C)nc4s3)C2)c1` (stereo unspecified), the Potency was inactive: > 76.9 µM.
Next, `CN(C)CCCOC(=O)c1cc2ccccc2o1`: inactive: > 76.9 µM; `COC(=O)c1ccc(N2CCN(C)CC2)c(NC(=O)c2cc3ccccc3o2)c1`: inactive: > 76.9 µM.
Next, `C=CCn1c(C)cc(C(=O)CSc2nnc(-c3cccc(S(=O)(=O)N(CC)CC)c3)o2)c1C`: inactive: > 76.9 µM; `Cc1cc2cc(CNC(=O)c3cccs3)ccc2n1C`: inactive: > 76.9 µM.
